We go through 53 compounds from PubChem BioAssay AID1346428 (National Center for Advancing Translational Sciences (NCATS), 2018).

Out of some 48,000 compounds screened, about 1,200 (2.5%) were called active. Not shown: some 2% with an inconclusive outcome.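 The calls were made as follows: active = activation of at least 60% and not above a set upper limit (about 1 call in 100 departs from these limits); inconclusive = activation of 40% to 60%, or above that upper limit; inactive = activation under 40%.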 The list shows a part of the results.

The assay deals with Probable G-protein coupled receptor 32 (Homo sapiens) (UniProt O75388). In words: qHTS for Agonists of Human Resolvin D1 Receptor DRV1. Also: 0% is about no effect. The following applies: CHO-K1 GPR32 beta-arrestin PathHunter luminescence, 90 min; at 76.9 µM; stronger effect = higher value; zero percent set by DMSO-only wells. Put shortly: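 GPR32 activation in stably transfected CHO-K1 cells, detected as beta-arrestin recruitment by enzyme-fragment complementation. Compound exposure: 90 min, 37 °C.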
Sequence of UniProt O75388 (O75388 whole entry, looked up, the tested form may be a part): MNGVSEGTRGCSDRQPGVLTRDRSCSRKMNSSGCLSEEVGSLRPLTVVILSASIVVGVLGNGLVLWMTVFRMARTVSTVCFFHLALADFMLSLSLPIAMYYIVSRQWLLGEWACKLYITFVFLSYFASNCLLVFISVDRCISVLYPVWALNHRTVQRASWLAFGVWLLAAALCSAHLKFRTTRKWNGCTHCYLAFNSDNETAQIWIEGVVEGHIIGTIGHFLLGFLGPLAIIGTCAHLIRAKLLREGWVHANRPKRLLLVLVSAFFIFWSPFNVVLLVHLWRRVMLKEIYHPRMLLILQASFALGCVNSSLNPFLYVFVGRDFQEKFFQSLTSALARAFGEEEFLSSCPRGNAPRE
On the technique in general: Quantitative high-throughput screening tests each substance at several concentrations.
Consider `Cc1ccc(CNC(=O)c2ccc(CSCc3ccc(C)cc3)o2)cc1`, for which the activation was inactive: -9.51%.

For the compound `CCOc1ccc(C2c3c(oc4ccc(C)cc4c3=O)C(=O)N2Cc2ccc3c(c2)OCO3)cc1OC` (stereo not drawn), the activation was inactive: 2.96%.

`Cc1c(C)n(Cc2ccc(Cl)cc2)c2ccc(C(=O)NCCc3ccc(S(N)(=O)=O)cc3)cc12`: the activation was inactive: -11.1%.

In the case of `COCCCNC(=O)c1cc2c(=O)n3cccc(C)c3nc2s1`, the activation is inactive: 6.91%.

In the case of `Nc1c(-c2nc(-c3ccc(Cl)cc3)cs2)c2ccccn2c1C(=O)c1ccc2c(c1)OCO2`, the activation is inactive: -24.3%.

Turning to `CCCCc1nc2ccccc2n2c(-c3ccc(C)cc3)c3c(=O)n(C)c(=O)n(C)c3c12`, the activation was inactive: 1.82%.

For `CO[C@@H]1[C@@H](OC(N)=O)[C@@H](O)[C@H](Oc2ccc3c(O)c(NC(=O)c4ccc(O)c(CC=C(C)C)c4)c(=O)oc3c2C)OC1(C)C`, the activation was inactive: 5.32%.

On to `O=S(=O)(Nc1cccc(-c2ccc(N3CCCCC3)nn2)c1)c1cccc(F)c1`, for which the activation is inactive: -1.19%.

Consider `CC1CCN(S(=O)(=O)c2ccc3c(c2)N(CC(=O)NC(C)c2ccccc2)C(=O)CO3)CC1` (stereo not drawn), for which the activation is inactive: -23.6%.

With `COc1ccc(C2C(=O)N(C3CCC(C)CC3)CC(=O)N2CCc2ccccc2)cc1OC` (stereo not drawn), the activation was inactive: -13.7%.

Consider `CSc1cccc(NC(=O)CN(c2ccccc2)S(=O)(=O)N(C)C)c1`, for which the activation is inactive: 0.996%.

Turning to `Cc1cc(N2CCCCC2)nc2ccc(NC(=O)c3cccc(F)c3)cc12`, the activation is inactive: -9.81%.

Consider `Cc1ccc(C(=O)N2CCc3cc(CNC(=O)COc4ccccc4)ccc32)cc1`, for which the activation was inactive: -40%.

With `CCCc1nnc(NC(=O)Cc2coc3cc(C)cc(C)c23)s1`, the activation was inactive: 7.61%.

In the case of `O=S(=O)(c1cccc(C(F)(F)F)c1)n1c(/C=C/c2ccccc2)nc2ccccc21`, the activation is inactive: -6.8%.

With `O=C(Cn1c(=O)n(-c2ccccc2)c(=O)c2sc3ccccc3c21)N1CCCC1`, the activation was inactive: 17.8%.

Take `CCOc1ccc(Nc2nc3ccccc3n3c(CC)nnc23)cc1`: the activation is inactive: -10.2%.

With `CCCN1CCN(CCCNC(=O)c2cnn(-c3ccc(F)cc3)c2-n2cccc2)CC1`, the activation was inactive: -5.54%.

For the compound `CC(C)OCCCNC(=O)CCCn1c(SCC(=O)c2ccc(F)cc2)nc2c(sc3ccccc32)c1=O`, the activation was inactive: -15%.

With `O=[N+]([O-])c1cc(-c2nc(-c3cccnc3)no2)ccc1NCc1ccccc1`, the activation was inactive: -6.97%.

In the case of `CC(C)c1ccc(NC(=O)CN2C(=O)COc3ccc(S(=O)(=O)Nc4ccccc4)cc32)cc1`, the activation was inactive: -1.58%.

As for `Cc1ccc2oc(=O)c3cnn(CC(=O)Nc4cccc(C(F)(F)F)c4)c3c2c1`, the activation is inactive: -6.81%.

For `O=C(NCC(c1ccco1)S(=O)(=O)c1ccc(Cl)cc1)c1ccccc1F` (stereo not drawn), the activation was inactive: -6.33%.

Take `COc1ccc(CCNC(=O)c2nnc(Cc3ccc(Cl)cc3)o2)cc1OC`: the activation was inactive: 7.49%.

As for `O=Nc1c(-c2c(O)[nH]c3cc(Br)ccc23)[nH]c2ccccc12`, the activation is inactive: -39.8%.

Take `COc1ccc(-c2nn3c(=O)cc(CN4CCN(C(=O)Nc5ccc(C)c(Cl)c5)CC4)nc3s2)cc1`: the activation was inactive: -9.24%.

With `CCC(C)NC(=O)Cn1c(=O)n(-c2ccc(C)cc2)c(=O)c2ccccc21` (stereo not drawn), the activation is inactive: -24.9%.

Consider `CCOC(=O)Cn1c(=O)cc(-c2ccccc2)c2c(C)nn(C)c21`, for which the activation is inactive: 14.8%.

Take `CCc1ccc(-n2nc(CO)c(C(=O)NCc3ccccn3)n2)cc1`: the activation is inactive: 1.38%.

For `Cc1ccccc1CSc1nc2nc(C)c(Cc3ccccc3)c(C)n2n1`, the activation was inactive: -21.7%.

Turning to `COc1ccc(OC)c(CCNC(=O)c2ccc(CS(=O)Cc3cccc(Cl)c3)o2)c1` (stereo not drawn), the activation was inactive: -17%.

In the case of `CCc1ccccc1N(CC)C(=O)c1cc2c(s1)-c1ccccc1OC2`, the activation is inactive: 5.12%.

As to `CCN(CC)CCOc1ccc(/C(=C(\Cl)c2ccccc2)c2ccccc2)cc1`, the activation was active: 91%.

Turning to `Cc1oc2ncnc(N3CCCCC3)c2c1C(=O)NCC1CCN(Cc2ccc(F)cc2)CC1`, the activation was inactive: -2.55%.

Turning to `Cc1nc(-c2ccccc2)sc1-c1ccc(SCC(=O)Nc2ccc(F)cc2F)nn1`, the activation was inactive: 0.331%.

In the case of `COCCNc1nc(NCc2ccccc2OC)c2cnn(C)c2n1`, the activation is inactive: 1.94%.

For the compound `CC(Sc1oc(-c2ccco2)nc1S(=O)(=O)c1ccc(Br)cc1)c1ccccc1` (stereo not drawn), the activation is inactive: -16.2%.

Turning to `COc1ccc(-n2ncc(C(=O)N3CCN(c4ccccn4)CC3)c2C2CCN(C(=O)OC(C)(C)C)CC2)cc1`, the activation was inactive: -3.65%.

For the compound `CCC(CC)c1nn2c(=O)cc(COc3ccc(NC(=O)c4ccc(Cl)cc4)cc3)nc2s1`, the activation is inactive: 4.99%.

`CCCCNc1nc(Oc2ccc(=O)n(-c3ccccc3)n2)nc(N(C)C)n1`: the activation is inactive: 2.59%.

Consider `CN(C(=O)c1nn(C)c2c1COc1ccccc1-2)c1cccc(C(F)(F)F)c1`, for which the activation is inactive: -12.1%.

For `Cc1nnc(N2CCN(c3ccccc3F)CC2)c2c1nnn2Cc1ccc(F)cc1`, the activation was inactive: -3.34%.

`CCOc1ccccc1NC(=O)C(NS(=O)(=O)c1cccc2nsnc12)c1ccccc1` (stereo not drawn): the activation is inactive: -27.9%.

On to `CCOC(=O)c1cn(CC(=O)Nc2cccc(Cl)c2C)nn1`, for which the activation was inactive: -2.28%.

Consider `COc1ccc(N2CCN(CCCNC(=O)c3cnn(-c4ccc(F)cc4)c3-n3cccc3)CC2)cc1`, for which the activation is inactive: 10.8%.

On to `COc1ccc(N2CCN(c3nc(-c4ccccc4F)nc4ccccc34)CC2)cc1`, for which the activation is inactive: -24.2%.

For the compound `O=C(CN(c1cccc(Br)c1)S(=O)(=O)c1ccccc1)N1CCc2ccccc2C1`, the activation is inactive: -12.3%.

Take `COCCNC(=O)c1c(NC(=O)Cc2coc3cc(C)ccc23)sc2c1CCCC2`: the activation is inactive: -21.3%.

For `CCC(C)NC(=O)c1ccc2c(c1)N(Cc1cccc(Cl)c1)C(=O)c1ccccc1S2=O` (stereo not drawn), the activation is inactive: -38.5%.

As for `Nc1nc(-c2ccccc2)c(Br)c(=O)[nH]1`, the activation is inactive: 9.77%.

`Cc1nc(-c2ccccc2)sc1CCNC(=O)c1ccco1`: the activation was inactive: 8.37%.

Regarding `CCc1ccccc1NC(=O)CSc1ncc2c(n1)-c1ccccc1N(Cc1ccc(C)cc1)S2(=O)=O`, the activation was inactive: -20.2%.

Turning to `CCN(C(=O)Cn1ncc2c1-c1cc(C)ccc1OC2)c1cc(Cl)ccc1OC`, the activation was inactive: -3.99%.
